Reference: PubChem BioAssay AID2546 (National Center for Advancing Translational Sciences (NCATS), 2010)
Out of some 310,000 compounds screened, about 11,000 (3.5%) were called active. The inconclusive results got no clear call from the source; some entries with a clear call stand among them for comparison. Calls follow the shape of the dose curve; as a rule, active = well fitted inhibition curve with a large enough effect; inconclusive = small, poorly fitted or top-dose-only effect, or effect the other way; inactive = flat fitted curve, though single readings scatter. Potencies of inconclusive entries are left out as doubtful fits.

Assay: VP16 counterscreen qHTS for inhibitors of ROR gamma transcriptional activity;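 also: Gal4-VP16 expression switched on by copper sulfate through the metallothionein promoter; nearly all actives have a fitted effect of over 50% in size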
Conditions: Drosophila S2 Gal4-VP16 UAS-luciferase, luminescence, 20 h; activity, negative = inhibition: at 53.6 µM (top of the series)
% is scaled to controls: 0 for no effect and ±100 for the full control effect; potency is read from the fitted curve at half-maximal effect; tags tell the direction and shape of the fitted curve.

Structure (SMILES) | activity, negative = inhibition | Potency
COc1cc(C(=O)NCC2(c3ccccc3)CCCC2)cc(OC)c1OC | inactive: -2.63% | –
CN(C)c1ccc(NC(=O)/C=C/c2c(Cl)cccc2Cl)cc1 | inactive: -5.77% | –
O=C(NCc1cccs1)C1CC(c2ccccc2O)=NO1 (configuration not stated) | – | inconclusive [inhibitor, single point]
C/C=C(\C)c1nnc(NC(=O)c2ccco2)s1 | – | inconclusive [activator, full curve, poor fit]
O=C(NC(=S)Nc1ccc2c(c1)C(=O)c1ccccc1C2=O)c1ccc(F)cc1 | – | inconclusive [inhibitor, single point]
COc1ccc(-c2nc3cnc(Oc4ccccc4)nc3n(CCC#N)c2=O)cc1 | – | inconclusive [inhibitor, single point]
Cc1ccc(C2=NN=C(NC(=O)CSc3nc(C)cc(C)n3)SC2)cc1 | – | inconclusive [inhibitor, single point]
COc1ccc(Oc2ncc3nc(-c4cccc(C#N)c4)c(=O)n(CCC#N)c3n2)cc1 | – | inconclusive [inhibitor, single point]
O=C(Cc1ccccc1)Nc1cccc(N2C(=O)C=CC2=O)c1 | – | active: 5.01 µM
O=C(Nc1nnc(-c2ccc(F)cc2)o1)c1ccco1 | – | active: 5.01 µM
O=C(Oc1cccc2cccnc12)c1ccc2c(c1)OCCO2 | – | active: 2 µM
CC(=O)Nc1ccc(S(=O)(=O)N(C)c2ccc(OCC(=O)OCC(=O)NCc3ccco3)cc2)cc1 | inactive: -2.23% | –
COC(=O)C1=C[C@@H](C(=O)OC)C2C3=C(C(=O)[C@@]2(CC(C)C)NC(=O)c2ccccc2)[C@H](C)n2c(=O)n(C)c(=O)n2[C@@H]3C1 (some centres not stated) | inactive: 0.0455% | –
CC(=O)c1ccc(Cc2ncc(C(F)(F)F)cc2Cl)s1 | – | inconclusive [activator, single point]
Cc1ccc(S(=O)(=O)N2CCOCC2)cc1NC(=O)c1cc2c(s1)CCC2 | inactive: -0.238% | –
COCCSc1ccccc1C(=O)NCc1ccco1 | – | inconclusive [inhibitor, single point]
Cc1ccc2nc(NC(=O)C3=NN(c4ccccc4)C(=O)CC3)sc2c1 | – | inconclusive [inhibitor, single point]
COc1ccc(C2CC(c3ccccc3)Nc3nc(NC(=O)c4ccco4)nn32)cc1 (configuration not stated) | – | active: 7.08 µM
Cc1ccc(OCC(=O)Nc2ccc(O)c(C(=O)O)c2)cc1C | – | inconclusive [inhibitor, single point]
CN(C)Cc1ccccc1-c1nc(N(C)C)c2ccccc2n1 | – | inconclusive [inhibitor, single point]
COc1ccc2oc(=O)c(-c3nnc(N)s3)cc2c1 | inactive: -4.45% | –
CCOc1ccc(C(=O)C2CCN(C(=O)c3ccccc3C(=O)O)CC2)cc1 | inactive: 8.39% | –
COc1ccc(Cl)cc1NC(=O)C(C)N(C)Cc1ccc(C(F)(F)F)cc1 (configuration not stated) | – | inconclusive [inhibitor, single point]
Nc1nc(SCC(=O)Nc2ccc(Oc3ccccc3)cc2)n[nH]1 | – | active: 17.8 µM

Structure (SMILES) | activity, negative = inhibition | Potency
CCCNC(=O)Cn1nc([N+](=O)[O-])c([N+](=O)[O-])c1C | – | inconclusive [inhibitor, single point]
Cn1cccc1-c1cc(C(=O)N/N=C/C=C/c2ccccc2)[nH]n1 | – | inconclusive [inhibitor, single point]
COC(=O)NCc1cc2cc(Cl)ccc2[nH]1 | – | inconclusive [inhibitor, partial curve, poor fit]
COC(=O)Cn1c(CN(C)Cc2ccccc2)nc2c1c(=O)n(C)c(=O)n2C | – | active: 12.6 µM
C=CCOC(=O)C1=C(C)NC(SCC(=O)Nc2ccccc2)=C(C#N)C1c1ccco1 (configuration not stated) | – | inconclusive [inhibitor, full curve, poor fit]
Cc1ccc(CS(=O)(=O)c2ncc(Cl)c(C(=O)Nc3ccc(OC(F)F)cc3)n2)cc1 | – | inconclusive [inhibitor, single point]
CCCC1S/C(=N/N=C/c2ccco2)NC1=O (configuration not stated) | – | active: 3.16 µM
COc1ccccc1CCNC(=O)C1CCN(c2nnc(C)c3c(C)n(-c4ccc(C)cc4)nc23)CC1 | – | inconclusive [inhibitor, single point]
N#CCCn1cc(/C=N/NC(N)=S)c(-c2ccc(Br)cc2)n1 | – | active: 0.501 µM
Cc1ccccc1NC(=S)NCc1ccco1 | – | inconclusive [inhibitor, single point]
O=C(/C(=C/c1cccc(Cl)c1)c1nc2ccccc2[nH]1)c1ccccc1 | – | active: 12.6 µM
C/C(=N\NC(=O)CSc1nc2ccccc2o1)c1cccc(O)c1 | inactive: -4.72% | –
CC1=NN(C(=O)c2nn(C)cc2Br)C(O)(C(F)(F)F)C1 (configuration not stated) | – | active: 11.2 µM
Cc1cc(C)nc(-n2nc(C)c(Oc3ccccc3O)c2C)n1 | – | inconclusive [inhibitor, single point]
COc1ccc(C(=O)NC(=S)Nc2ccc(CN3CCOCC3)cc2)cc1Br | – | active: 17.8 µM
CCOC(=O)C(C(=O)OCC)C(Nc1cccc(Br)c1)c1ccccc1 (configuration not stated) | – | inconclusive [inhibitor, single point]
CC1CCCCN1C(=O)CSc1nc(C2CC2)nc2c1cnn2-c1ccccc1 (configuration not stated) | inactive: 7.49% | –
O=C(CCC1CCCC1)Nc1ccc(C(=O)NCc2cccnc2)cc1 | inactive: 4.24% | –
CCCOC(=O)C1=C(C)N(C)C(=O)NC1c1cc2c(cc1[N+](=O)[O-])OCO2 (configuration not stated) | inactive: 23.9% | –
CCOc1ccc(N/C=C/C(=O)c2ccccc2)cc1 | – | inconclusive [inhibitor, full curve, poor fit]
Cc1ccc(C2CC(=O)N3CN(Cc4ccco4)CSC3=C2C#N)cc1 (configuration not stated) | – | inconclusive [inhibitor, single point]
CC(=O)c1sc(NC(=O)CCS(=O)(=O)c2ccccc2)nc1C | – | inconclusive [inhibitor, single point]
COc1ccc(NC(=O)CSc2nnc(COc3ccccc3)n2Cc2ccco2)cc1OC | – | active: 11.2 µM
